# Laboratory results as given in ChEMBL document CHEMBL4888484, “Replenishing the malaria drug discovery pipeline: Screening and hit evaluation of the MMV Hit Generation Library 1 (HGL1) against asexual blood stage Plasmodium falciparum ,using a nano luciferase reporter read-out” (2022).
# Among all 150,000 compounds or so, about 540 (0.36%) showed an effect of 50% or more. The list shows a part of the results.
# Tested on: Plasmodium falciparum
# Assay: Primary screen in NF54 nanoGlo assay, in single point, at 2uM, 72h; a lower Z score goes with more inhibition
# Type: functional, Erythrocyte
# Settings: timepoint 72 hour
SMILES,% Inhibition [%],Z score
O=C(Nc1ccc(N2CCOCC2)cc1)c1ccc2c(c1)CCCC2,-23,2.74
CCOC(=O)c1c[nH]c(=O)n1Cc1ccccc1,-2,0.27
Cc1nc(N(C)C)nc(N[C@H]2CCN(Cc3ccccn3)C[C@@H]2O)c1C,-2,0.36
C[C@H]1C[C@@H](CO)CCN1S(=O)(=O)c1ccc2ccccc2c1F,7,-1.39
COCCN(CC(=O)N1N=C(c2ccc(OC)cc2)C[C@H]1c1ccc2c(c1)OCO2)C(=O)C(C)C,7,-0.96
Cc1ccnc([C@@H](NC(=O)Nc2c(C)ccc3nsnc23)C2CC2)c1,-8,1.46
Cc1nn(C(C)C)c(C)c1NCc1cc(Br)c2c(c1)OCO2,-9,1.8
COC[C@H](C)NC(=O)Nc1ccc(C)c(-c2nc(C)co2)c1,4,-0.69
Cc1ccc(NC(C)(C)C(=O)NCCc2cccn2C)cc1,-15,1.4
O=C(NCCc1ccco1)c1nnc(C(=O)Nc2ccc(F)cc2)s1,-12,2.03
CCc1nn(-c2ccc(OC)cc2)c(Oc2ccc(F)cc2F)c1CN(C[C@H]1CCCO1)C(=O)C1CCC1,-11,1.83
CC(C)c1nc(N2CCc3nc[nH]c(=O)c3C2)cc(C(C)(C)C)n1,2,-0.24
Cc1ncsc1CN1CCC2(CC1)NCCc1c2[nH]c2ccccc12,11,-1.43
Cc1cc(C)n(Cc2cc(-c3ccccc3)no2)n1,-11,2.07
Cc1ccc(C(=O)N2CCC(C3(c4ccccn4)NC(=O)N(CC4CCCO4)C3=O)CC2)c(C)c1 (stereo not given),-3,0.62
CCc1nc(-c2ccc(-c3noc(Cc4cccc(OC)c4)n3)cc2)cs1,-10,0.98
O=C(Cc1c(Cl)cccc1Cl)Nc1cccc(C(=O)NC2CC2)c1,0,0.06
COCC(=O)N1CCC(C)C(CNC(=O)OC(C)(C)C)C1 (stereo not given),-1,0.11
Cc1nn(CCCNC(=O)c2c(C)ncn2C)c(C)c1C,-1,0.19
CN(Cc1cccc2[nH]ccc12)CC1(CO)CCCC1,21,-2.61
COCCC(=O)N[C@H]1CC(=O)N(C2Cc3ccccc3C2)C1,-4,0.71
Cc1csc(C(=O)N2CCc3nc(NC(=O)c4cnccn4)sc3C2)c1,-2,0.33

SMILES,% Inhibition [%],Z score
CC12CC(CN1S(=O)(=O)CCc1ccc(F)cc1)C2,-4,0.74
CCC(=O)Nc1nc2ccc(NC(=O)Nc3cccc(Cl)c3)cc2s1,-6,0.96
CC(=O)N1C[C@H]2CC[C@@H](C1)N(Cc1ccc(F)c(Cl)c1F)C2,-1,0.15
CN(Cc1csc(-c2ccccc2)n1)Cc1noc([C@@H]2CCCO2)n1,-13,1.42
O=C(Nc1ccc2[nH]c(=O)[nH]c2c1)c1cc2c(s1)CCC2,16,-1.86
CC1(CNC(=O)N2CCCC(CO)C2)CCCc2ccccc21 (stereo not given),-7,0.87
O=C(NCCN1CCOCC1)C1CC1c1cccc2ccccc12 (stereo not given),-6,0.74
CC1(C)CN(C(=O)c2csc(C(F)(F)F)n2)[C@H]1C1CC1,1,-0.21
NS(=O)(=O)c1ccc(CNS(=O)(=O)N2CCc3ccccc3C2)cc1,4,-0.53
CCC(=O)N1CCC(c2noc(COc3cccnc3)n2)CC1,-16,2.04
C[C@H](O)CNc1ncc(Br)cc1Cl,-5,0.74
Cc1ccc(C)c(N2CCN(S(=O)(=O)c3cc(-c4cc(C)no4)ccc3C)CC2)c1,-10,1.33
Cc1nc(-c2cccs2)sc1C(=O)N1CCC2(CC1)NC(=O)NC2=O,18,-2.27
COc1cc(C)cc(C(=O)N2CCO[C@H](c3nccs3)C2)c1O,-7,0.97
C[C@@H](c1nc(Cc2cccs2)nn1C(C)(C)C)n1cncn1,6,-0.9
O=C(NCc1ccccc1F)C1Cc2cc(C(F)(F)F)ccc2N2CCN(c3ccccc3F)CC12 (stereo not given),3,-0.32
Cc1ccc(S(=O)(=O)N2CC3CN(C(=O)CNC(=O)c4ccccc4)CC(C2)O3)cc1,-24,2.15
FC(F)c1nnc2n1CCN(c1nc(CC3CC3)ns1)C2,-4,0.61
Cc1c(C(=O)N(Cc2ccccc2)[C@H]2CCS(=O)(=O)C2)oc2ccccc12,7,-1.27
C[C@@H](C(=O)N1Cc2cncnc2C1)c1ccccc1,2,-0.42
COc1cccc(CNC(=O)[C@@H]2CCCN2c2nnc(N3CCCCC3=O)s2)c1,-12,2.2
Cc1cccc2[nH]c(CNC(=O)N3CCCC(C4CCCCO4)C3)nc12 (stereo not given),9,-1.68

SMILES,% Inhibition [%],Z score
CN(C)S(=O)(=O)NC1(C)CCCCCC1,8,-1.18
c1ccc([C@H](CCn2cncn2)NC2CCN(c3ccc4c(c3)OCO4)CC2)cc1,-2,0.35
O=C([C@@H]1CC=CCC1)N1CC(Nc2cccnn2)C1,-7,0.85
CCn1cnnc1CNC(=O)OCC1CCCCC1,15,-1.8
CC[C@H]1CCCCCN1C(=O)NCCOC,-7,1.02
CC(C)N[C@H]1[C@H](O)[C@@H](n2cnc3ccccc32)[C@@H]2OC[C@H]1O2,31,-3.54
COc1ccc(C)cc1S(=O)(=O)[C@H]1CS(=O)(=O)C[C@@H]1N1CCC(C(N)=O)CC1,-10,1.35
COCCNC(=O)c1cccnc1Oc1cccc(NS(=O)(=O)c2ccccc2)c1,-1,0.18
CCc1ccc(S(=O)(=O)N2CCN(c3ccc(-c4cccs4)nn3)CC2)s1,-12,1.86
O=C(NC(Cc1ccccc1)c1cccs1)C1COCCO1 (stereo not given),-13,2.36
Cc1cc(C(=O)N2CC(c3nc(C4CC4)no3)C2)c(C)o1,-10,1.98
O=C(CN1C[C@@H]2CC[C@H]1CN(Cc1cscn1)C2)N1CCc2ccccc21,-1,0.08
N#CCCNC[C@H]1CN(C2CC2)CCO1,-6,0.57
Cc1ccc2nc(N3CCC[C@H](O)C3)c(CN3CCCN(C)CC3)cc2c1,-6,1.13
CCc1cc(CC(=O)N2CCC(n3ccnn3)CC2)n(C)n1,-8,0.96
CC1CCN(C(=O)Cn2ccc(=O)[nH]c2=O)CC1,-1,0.19
CC(C)(C)c1ccc(S(=O)(=O)N2CC(=O)N3CCc4ccccc4[C@@H]3C2)cc1,4,-0.73
CC(C)OCCS(=O)(=O)NCC1(N)CCCCC1,6,-1.03
CC(C)n1ncc(C(=O)N[C@H]2CCCNC2=O)c1N,0,0.06
C[C@H]1c2nncn2CCN1C(=O)c1cc(C2CC2)nn1C,-15,2.32
CC[C@H](C)S(=O)(=O)NC(=O)c1cnn(C)n1,-3,0.51
NC(=O)c1cc(N2CC(Cc3ccc(Br)cc3)C2)ncn1,-5,0.82

SMILES,% Inhibition [%],Z score
CC(C)(C)CN1C[C@@H](NC(=O)c2cnc(-c3cccnc3)nc2)CC1=O,-1,0.18
CCCCc1nc(-c2nccn2CC(F)(F)F)c[nH]1,-10,1.95
CS(=O)(=O)Nc1ccc(OC(=O)c2cccc(-n3cnnn3)c2)cc1,0,0.09
Cc1cc(C)c(C#N)c(N2C[C@@H](CN3CCCCCC3)[C@@H](CO)C2)n1,-3,0.57
CC(C)C[C@H]1COCCN1Cc1cccc(C(=O)Nc2ncn(C)n2)c1,7,-0.74
Cc1c(C(=O)N2CCN(C3CC3)CC2)nnn1Cc1ccc(F)cc1F,-11,2.23
COc1ccc(NC(=O)NCCCn2c(-c3ccc(F)cc3)nc3cccnc32)c(OC)c1,-10,0.87
C[C@@H](C(=O)NCc1ccc(N2CCCC2)cc1)n1cncn1,0,0
O=C(C1CCCCCC1)N1CCC(n2cc(-c3ccccc3)nn2)CC1,-5,0.84
CCCc1[nH]nc(-c2ccccc2)c1NC(=O)c1ccc(C(F)(F)F)cc1,-13,1.76
CCCc1cc(C(=O)N2CCC[C@@H]2CCc2ccccn2)no1,-14,2.53
C[C@H]1CCN(c2nc3ccccc3o2)CCS1(=O)=O,-14,2.25
COc1ccc(CCNC(=O)C(=O)N2CCCCC2)cc1,-9,1.17
O=C(c1ccc2cc[nH]c2c1)N1CCC(c2nccn2CC2CC2)CC1,-8,1.02
Cc1cc(C(=O)N2CCO[C@@H](C)C2)on1,-4,0.44
Cc1ccc(CN2CCN(C(=O)COc3cccnc3)CC2=O)cc1C,6,-1.05
Cn1nc(C(=O)NC2CC2)c2c1CN(C(=O)c1cccc(C#N)c1)C2,-5,0.58
C[C@@H](c1cccs1)N(C)CC(=O)Nc1cccc(N2CCCC2=O)c1,-6,0.52
O=C1N[C@@H](COCc2ccccc2)C(=O)N2CCC[C@@H]12,7,-1.02
